# Some of the results follow. Many values rest on one well or one pass, so single values are uncertain.
# Assays:
# Assay in all cases: cell count relative to DMSO control; melanoma cells; higher = more viable cells
# Settings in all cases: library dose: standard library concentration; 72 h
# SkMel28 = test system: SkMel28
# SkMel2 = test system: SkMel2
# SkMel30 = test system: SkMel30
# SkMel5 = test system: SkMel5
# UACC257 = test system: UACC257
# UACC62 = test system: UACC62
# WM115 = test system: WM115
# WM1716 = test system: WM1716
# WM1745 = test system: WM1745
# WM3526 = test system: WM3526
# 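Further: cells treated in 1,536-well plates, then fixed and DAPI-stained, with nuclei counted from automated high-throughput microscope images.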
SMILES,cell count (SkMel28),cell count (SkMel2),cell count (SkMel30),cell count (SkMel5),cell count (UACC257),cell count (UACC62),cell count (WM115),cell count (WM1716),cell count (WM1745),cell count (WM3526)
"Cc1cn(-c2cc(NC(=O)c3ccc(C)c(Nc4nccc(-c5cccnc5)n4)c3)cc(C(F)(F)F)c2)cn1 [nilotinib] + CS(=O)(=O)c1ccc(C(=O)Nc2ccc(Cl)c(-c3ccccn3)c2)c(Cl)c1 [vismodegib] (first compound 1 µM, partner dose 5 µM)",88%,85.6%,84.2%,82.9%,121%,93.1%,116%,107%,95.1%,90%
"COc1ccc(C2=N[C@@H](c3ccc(Cl)cc3)[C@@H](c3ccc(Cl)cc3)N2C(=O)N2CCNC(=O)C2)c(OC(C)C)c1 [Nutlin-3] + Cn1nnc2c(C(N)=O)ncn2c1=O [temozolomide] (first compound 0.5 µM, partner dose 10 µM)",25.4%,103%,55.1%,64.3%,67%,37%,49.5%,46.5%,90.5%,76.5%
"Cn1c(=O)n(-c2ccc(C(C)(C)C#N)cc2)c2c3cc(-c4cnc5ccccc5c4)ccc3ncc21 + O=C(O)c1ccc2c(c1)nc(Nc1cccc(Cl)c1)c1ccncc12 [CX4945] (first compound 0.02 µM, partner dose 2 µM)",47.2%,79.4%,64.5%,70.9%,90.6%,60.4%,68.9%,81.4%,64.5%,67.7%
"COc1ccc(C2=N[C@@H](c3ccc(Cl)cc3)[C@@H](c3ccc(Cl)cc3)N2C(=O)N2CCNC(=O)C2)c(OC(C)C)c1 [Nutlin-3] + Clc1ccc(Nc2nnc(Cc3ccncc3)c3ccccc23)cc1 [vatalanib] (first compound 0.5 µM, partner dose 10 µM)",44.8%,67.1%,65.1%,62.5%,62.6%,62.6%,74.8%,65.7%,69.8%,70.9%
"COc1ccc(C2=N[C@@H](c3ccc(Cl)cc3)[C@@H](c3ccc(Cl)cc3)N2C(=O)N2CCNC(=O)C2)c(OC(C)C)c1 [Nutlin-3] + CCN(CC)CCNC(=O)c1c(C)[nH]c(/C=C2\C(=O)Nc3ccc(F)cc32)c1C [sunitinib] (first compound 0.5 µM, partner dose 2 µM)",27.9%,65.8%,72.4%,42.1%,80%,40.5%,38.4%,73.6%,39.4%,52.2%
"Cc1cn(-c2cc(NC(=O)c3ccc(C)c(Nc4nccc(-c5cccnc5)n4)c3)cc(C(F)(F)F)c2)cn1 [nilotinib] + Nc1nc(F)nc2c1ncn2[C@@H]1O[C@H](CO)[C@@H](O)[C@@H]1O [fludarabine] (first compound 1 µM, partner dose 1 µM)",0.284%,1.17%,17.3%,19.8%,42.4%,59.5%,78.9%,99.2%,72.4%,28.7%
"CC(C)C[C@H](NC(=O)[C@H](Cc1ccccc1)NC(=O)c1cnccn1)B(O)O [Bortezomib] + CN1CCN(c2ccc3nc(-c4c(N)c5c(F)cccc5[nH]c4=O)[nH]c3c2)CC1 [Dovitinib] (first compound 0.005 µM, partner dose 0.5 µM)",19.5%,39.1%,19.3%,20.6%,52.9%,40.7%,19.1%,23.9%,28.1%,16.9%
"CC(C)C[C@H](NC(=O)[C@H](Cc1ccccc1)NC(=O)c1cnccn1)B(O)O [Bortezomib] + COc1cc(Nc2ncc(F)c(Nc3ccc4c(n3)NC(=O)C(C)(C)O4)n2)cc(OC)c1OC [Tamatinib] (first compound 0.005 µM, partner dose 2 µM)",30.7%,26.2%,28.6%,19.7%,63.8%,62.3%,15.5%,18.3%,11.5%,32.3%
"CC(C)C[C@H](NC(=O)[C@H](Cc1ccccc1)NC(=O)c1cnccn1)B(O)O [Bortezomib] + CN(C)S(=O)(=O)c1ccc2c(c1)/C(=C/c1cc3c([nH]1)CCCC3)C(=O)N2 [SU6656] (first compound 0.005 µM, partner dose 2 µM)",23.7%,46.4%,30.8%,26.4%,75.3%,59.5%,23.5%,17.9%,30.3%,28.7%
"Cc1cn(-c2cc(NC(=O)c3ccc(C)c(Nc4nccc(-c5cccnc5)n4)c3)cc(C(F)(F)F)c2)cn1 [nilotinib] + O=C(O)c1ccc(-c2c[nH]c3ncc(-c4ccccc4)cc23)cc1C1CCCC1 [GSK650394] (first compound 1 µM, partner dose 0.8 µM)",81.5%,94.3%,123%,78.4%,92.8%,97.9%,95.3%,85.2%,73.8%,92.1%
"CC(C)C[C@H](NC(=O)[C@H](Cc1ccccc1)NC(=O)c1cnccn1)B(O)O [Bortezomib] + NCC(=O)Nc1ccc(-n2nc(C(F)(F)F)cc2-c2ccc3c(ccc4ccccc43)c2)cc1 [OSU03012] (first compound 0.005 µM, partner dose 5 µM)",14.9%,13.5%,23%,30.4%,63.4%,52.2%,17.8%,23.2%,17.7%,17.8%
"Cn1c(=O)n(-c2ccc(C(C)(C)C#N)cc2)c2c3cc(-c4cnc5ccccc5c4)ccc3ncc21 + CN(C)S(=O)(=O)c1ccc2c(c1)/C(=C/c1cc3c([nH]1)CCCC3)C(=O)N2 [SU6656] (first compound 0.02 µM, partner dose 2 µM)",59.9%,80.7%,96.5%,73.6%,84.8%,78.9%,55.2%,75.8%,83.7%,72.5%
"COc1ccc(C2=N[C@@H](c3ccc(Cl)cc3)[C@@H](c3ccc(Cl)cc3)N2C(=O)N2CCNC(=O)C2)c(OC(C)C)c1 [Nutlin-3] + CC1(C)NC(=O)N(c2ccc([N+](=O)[O-])c(C(F)(F)F)c2)C1=O [nilutamide] (first compound 0.5 µM, partner dose 5 µM)",53.4%,77.2%,82.7%,50.4%,69.3%,57%,55.8%,61.4%,48.9%,79.6%
"Cc1cc(Nc2cc(N3CCN(C)CC3)nc(/C=C/c3ccccc3)n2)n[nH]1 + NC(=O)Nc1cc(-c2cccc(F)c2)sc1C(=O)N[C@H]1CCCNC1 [AZD7762] (first compound 0.2 µM, partner dose 0.1 µM)",44.7%,71.3%,85.5%,66.8%,107%,65.4%,50.4%,60.2%,61.1%,40.5%
"Cc1cc(Nc2cc(N3CCN(C)CC3)nc(/C=C/c3ccccc3)n2)n[nH]1 + C[C@@H]1CCN(C(=O)CC#N)C[C@@H]1N(C)c1ncnc2[nH]ccc12 [CP690550] (first compound 0.2 µM, partner dose 5 µM)",95.3%,80%,88.9%,71.3%,89.7%,73.6%,61.7%,67.3%,70.2%,73.1%
"Cc1cc(Nc2cc(N3CCN(C)CC3)nc(/C=C/c3ccccc3)n2)n[nH]1 + CO[C@H]1C[C@@H]2CC[C@@H](C)[C@@](O)(O2)C(=O)C(=O)N2CCCC[C@H]2C(=O)O[C@H]([C@H](C)C[C@@H]2CC[C@@H](OCCO)[C@H](OC)C2)CC(=O)[C@H](C)/C=C(\C)[C@@H](O)[C@@H](OC)C(=O)[C@H](C)C[C@H](C)/C=C/C=C/C=C/1C [everolimus] (first compound 0.2 µM, partner dose 0.1 µM)",38.9%,62.2%,74.2%,50.7%,79.2%,65.6%,62.3%,63.8%,82.3%,51.6%
"Cn1c(=O)n(-c2ccc(C(C)(C)C#N)cc2)c2c3cc(-c4cnc5ccccc5c4)ccc3ncc21 + Cn1c(Nc2ccc(C(F)(F)F)cc2)nc2cc(Oc3ccnc(-c4ncc(C(F)(F)F)[nH]4)c3)ccc21 [CHIR265] (first compound 0.02 µM, partner dose 0.4 µM)",23%,31.1%,45.3%,30.1%,80.6%,38%,25.4%,54.2%,50.7%,35.7%
"CC(C)C[C@H](NC(=O)[C@H](Cc1ccccc1)NC(=O)c1cnccn1)B(O)O [Bortezomib] + O=C(O)[C@@H]1[O][Sb](=[O])([O][Sb]2(=[O])[O][C@H]([C@H](O)CO)[C@H](O)[C@H](C(=O)O)[O]2)[O][C@H]([C@H](O)CO)[C@@H]1O [stibogluconate] (first compound 0.005 µM, partner dose 10 µM)",26.6%,36.9%,17.9%,26.7%,78.7%,39.7%,20.9%,18.4%,19.6%,16.9%
"Cc1cn(-c2cc(NC(=O)c3ccc(C)c(Nc4nccc(-c5cccnc5)n4)c3)cc(C(F)(F)F)c2)cn1 [nilotinib] + Nc1cccc2c1CN(C1CCC(=O)NC1=O)C2=O [lenalidomide] (first compound 1 µM, partner dose 5 µM)",89.2%,79.3%,113%,64.8%,93.6%,66.8%,94.8%,109%,74%,82.3%
"Cc1cc(Nc2cc(N3CCN(C)CC3)nc(/C=C/c3ccccc3)n2)n[nH]1 + O=C(O)c1ccc(-c2c[nH]c3ncc(-c4ccccc4)cc23)cc1C1CCCC1 [GSK650394] (first compound 0.2 µM, partner dose 0.8 µM)",63.4%,74.3%,93%,83.2%,83.8%,92%,55.5%,75.8%,80.8%,82.7%
"Cc1cn(-c2cc(NC(=O)c3ccc(C)c(Nc4nccc(-c5cccnc5)n4)c3)cc(C(F)(F)F)c2)cn1 [nilotinib] + COc1cc(Nc2ncc(F)c(Nc3ccc4c(n3)NC(=O)C(C)(C)O4)n2)cc(OC)c1OC [Tamatinib] (first compound 1 µM, partner dose 2 µM)",70.4%,107%,93.4%,61.4%,85%,92.1%,101%,20.5%,46.6%,67.3%

# Reference: the supplement of paper PMC4604168 (melanoma cell lines)
